Experimental data published in PubChem BioAssay AID1508624 (National Center for Advancing Translational Sciences (NCATS), 2021).
Screen size: about 48,000 compounds; about 120 (0.25%) were called active. Not shown: some 4% with an inconclusive outcome. Calls come from the whole dose curve; as a rule, active = well fitted activation curve with a large enough effect; inconclusive = small, poorly fitted or top-dose-only effect, or another doubt; inactive = no such curve, though single readings can be large or run the other way. This is one part of the list.

Experiment: Primary qHTS for Identification of Small Molecule Activators of Huntingtin-Antisense Promoter Activity; note: nearly all actives have a fitted effect of over 55% in size
Conditions: HEK293 HTT-AS promoter firefly luciferase reporter (activity 0% = vehicle and -100% = no light), 24 h; series mostly up to 57.5 µM; activity change, positive = activation: at the top concentration
Method in brief: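 HEK293 luciferase promoter-reporter cells (2,500/well) plated 24 h, then compounds added at up to 57.5 uM final for 24 h at 37 °C. Firefly luminescence by Dual-Glo, normalized to vehicle (0%) and zero RLU (-100%).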

Activity change, positive = activation, inactive:
Cc1ccc(Cl)cc1NC(=O)Nc1c(C)n(C)n(-c2ccccc2)c1=O -6.15%, CCOC(=O)CSc1nc2ccc(NC(=O)c3ccc(F)cc3)cc2s1 -4.95%, COc1ccc(NC(=O)Cn2cc(S(=O)(=O)c3ccc(C)cc3)c(=O)c3ccccc32)cc1OC -0.924%, CCOc1ccccc1Nc1nc(-c2cccc(Cl)c2)c2c(n1)-c1ccccc1OC2 -3.29%, Cc1ccc(CSCC(=O)NCc2ccc(F)cc2)cc1 -6%, COc1ccc(-c2noc(-c3ccc(NCc4ccco4)c([N+](=O)[O-])c3)n2)cc1 -4.4%, CCOC(=O)c1cccc(NC(=O)CCc2c(C)nc3cc(-c4ccc(Cl)cc4)nn3c2C)c1 -79.4%, CCc1nnc(SCC(=O)N(C)c2ccccc2)c2cc3sccc3n12 -27%, COc1ccc(-c2ccc(CNc3ccc4[nH]c(=O)[nH]c4c3)o2)cc1Cl -30.9%, Cn1cnnc1SCC(=O)Nc1cc(C(=O)O)cc(C(=O)O)c1 6.95%, CCc1ccc(Oc2nc3c(C)cccn3c(=O)c2/C=C(\C#N)c2nc3ccccc3[nH]2)cc1 -7.13%, COc1cc(-c2noc(CSc3nc(-c4ccccc4)cc(=O)[nH]3)n2)cc(OC)c1OC -8.46%, Cc1cccc(C(=O)NCC(c2ccc3c(c2)OCO3)N2CCN(c3ccccc3F)CC2)c1 (stereo not given) -27%, Cc1ccc(-n2nc(C)c3c(C)cc(=O)n(CC(=O)Nc4ccc(Br)cc4F)c32)cc1 0.324%, COc1ccc(S(=O)(=O)c2c(Nc3ccc(C)cc3)sc(C(=O)c3ccc(C)cc3)c2N)cc1 -22.7%, Cc1cc(=O)n2[nH]c(NCc3ccc(F)cc3)nc2n1 1.68%, CCOc1ccccc1CNC(=O)C1CCN(C2=NS(=O)(=O)C(c3ccc(C)c(C)c3)=C2C)CC1 -16.7%, COc1ccc(NC(=O)c2ccc3c(=O)n4nc(Nc5cc(C)ccc5C)sc4nc3c2)cc1 -54.1%, CCCN(C(=O)c1nn(-c2ccc(OC)c(Cl)c2)c(=O)c2c1c1ccccc1n2C)c1ccccc1F -11.8%, COc1ccc(OC)c(NC(=O)Cn2cnc3sc(C)c(S(=O)(=O)N4CCN(c5ccccc5OC)CC4)c3c2=O)c1 10.4%, COc1ccc(C(=O)N2CCC(c3nc4ccccc4o3)CC2)cc1 -33%, CCOc1ccc(C(=O)NCCc2csc(-c3ccc(C(F)(F)F)cc3)n2)cc1OCC -18.8%, c1ccc(Cc2nnc(SCc3nc(-c4cccs4)no3)n2-c2ccccc2)cc1 -36.2%, Cc1ccccc1N1CCN(S(=O)(=O)c2nnc(NC(=O)c3ccccc3)s2)CC1 -36.9%, COc1ccc(S(=O)(=O)c2c(Nc3ccc(F)cc3)sc(C(=O)c3ccc(C)cc3C)c2N)cc1 -26.5%, Cc1onc(-c2c(Cl)cccc2Cl)c1C(=O)Cl -5.04%, COc1cccc(NC(=O)c2sc3nc(C)c(C(=O)Nc4ccc(C)cc4C)c(-c4sccc4C)c3c2N)c1 4.02%, CS(=O)(=O)CCNCc1ccc(-c2ccc3ncnc(Nc4ccc(OCc5cccc(F)c5)c(Cl)c4)c3c2)o1, O=c1c2oc3ccccc3c2n(Cc2cccc(F)c2)c(=O)n1Cc1ccco1 -18%, CC(C)c1ccc2oc(-c3cc(NC(=O)c4cccs4)ccc3Cl)nc2c1 -19.2%, CC1=C(C(=O)Nc2cccnc2)C(c2cccc(O)c2)n2nc(SCc3ccccc3)nc2N1 (stereo not given) 8.25%, CCCn1c(=O)n(-c2cc(Cl)c(OC)cc2OC)c(=O)c2c3c(sc21)CN(C(C)=O)CC3 -15.5%, Cc1ccc([C@H]2Nc3ccc(S(=O)(=O)Nc4cccc(Cl)c4C)cc3[C@H]3C=CC[C@H]32)cc1 -13.8%, CCn1cc(CCC(=O)NCc2ccc(F)cc2)c2ccccc21 -0.109%, COc1ccc(CCNC(=O)CSc2ncc3c(n2)-c2cc(Cl)ccc2N(Cc2ccccc2)S3(=O)=O)cc1OC -16.9%, Cc1ccc(CNC(=O)c2nc(SCc3ccc(C)cc3)ncc2Cl)cc1 -15.5%, CCc1ccccc1NC(=O)Cn1c(=O)c2cccn2c2ccc(F)cc21 -8.59%, CC(C)c1ccc(NC(=O)CSC2=Nc3ccccc3C3=NC(CC(=O)NCc4ccc(F)cc4)C(=O)N23)cc1 (stereo not given) -37%, COc1ccc(CNC(=O)c2ccc3c(c2)N(Cc2cccc(Cl)c2)C(=O)c2ccccc2S3)c(OC)c1 -13.8%, COCCCNC(=O)CCn1c(=O)c2ccccc2n(CC(=O)Nc2c(C)cc(C)cc2C)c1=O -5.96%, Cc1ccc(-n2c(=O)c3cccnc3n2CC(=O)Nc2cccc(C)c2C)cc1 -13.5%, Cc1ccc(Cl)cc1N1CCN(C(=O)C2CCCN(S(=O)(=O)c3ccc(Br)s3)C2)CC1 (stereo not given) -23.2%, COc1ccccc1NC(=O)CCn1cnc2ccccc2c1=O -7.63%, Cc1ccc2nc(-c3ccc(Cl)c(NC(=O)c4cccnc4)c3)oc2c1 7.3%, CCOc1ccc(NC(=O)CSc2nccn2-c2cccc(C)c2C)cc1 -29.4%, Oc1ccc(Cl)c2cccnc12 -11.5%, CC(=O)N1CCCc2cc(S(=O)(=O)N3CCCCC3)ccc21 -9.98%, CCOc1ccccc1CNC(=O)c1cc2c(=O)n(Cc3ccccc3)ccc2nc1C -35.8%, CN(C(=O)c1cc2c(=O)oc3ccccc3c2s1)c1ccc(F)cc1 -9.74%, CCCCn1c2ccc(F)cc2c2nnc(SCCN3CCCCC3)nc21 -6.27%, O=S(=O)(NCC(c1ccco1)S(=O)(=O)c1cccs1)c1ccc(F)c(C(F)(F)F)c1 (stereo not given) -37.6%, Cc1ccc(OCC(=O)NCC(=O)OCc2cc(=O)n3nc(C)sc3n2)cc1 -4.85%, CCOC(=O)C1CCN(S(=O)(=O)c2cc(-c3onc(C)c3C)ccc2OC)CC1 -26.3%, COc1ccc(OC)c(CNC(=O)C2CCN(S(=O)(=O)c3cn(C)cn3)CC2)c1 -1.93%, COc1cc(Cl)c(C)cc1NC(=O)c1cc(CN2CCOCC2)on1 11.2%, CCc1ccc(NC(=O)CCS(=O)(=O)c2ccc3c(c2)CCN3C(C)=O)cc1 -17%, CCc1ccccc1NC(=O)Nc1cc(C(=O)NCc2ccc(C(C)C)cc2)ccc1N1CCCC1 -6.3%, Cc1cc(NC(=O)c2ccc3c(c2)N(Cc2cccc(Cl)c2)C(=O)c2ccccc2S3=O)ccc1Br (stereo not given) -9.63%, Cc1ccc(S(=O)(=O)c2cn(Cc3ccccc3F)c3cc4c(cc3c2=O)OCO4)cc1 5.43%, CC1CCCN(Cc2c(O)ccc3c(=O)c(Oc4ccccc4Cl)c(C(F)(F)F)oc23)C1 (stereo not given) -13.1%, CO[C@@H]1[C@@H](O)[C@H](O)[C@@H](n2c3c(Cl)cccc3c3c4c(c5c6cccc(Cl)c6[nH]c5c32)C(=O)NC4=O)O[C@@H]1CO -36%, CCC1CN(S(=O)(=O)c2cc(-c3cc(C)no3)ccc2OC)c2cc(C)ccc2O1 (stereo not given) -25.5%, CCC(=O)c1ccc(O)cc1 -1.15%, CCOc1ccc(C(=O)Nc2nnc(SCc3cc(=O)c4cc(C)ccc4[nH]3)s2)cc1 3.36%, COc1cccc2sc(N(Cc3cccnc3)C(=O)COc3ccccc3)nc12 -26.2%, Cc1nn(-c2ccccc2)c(OC(=O)c2ccccc2F)c1S(=O)(=O)c1ccccc1 -18.1%, Cc1ccc(C)c(NC(=O)CSc2nc(=O)n(CCN(C)C)c3c2CCC3)c1 -1.08%, COc1cc(CN(C(=O)c2ccccc2[N+](=O)[O-])c2ccccn2)cc(OC)c1OC -9.01%, Cc1sc2c(c1C)c(=O)n(CCc1ccccc1)c(=O)n2Cc1ccccc1Cl 9.63%, CCn1c(=O)c2cc(C(=O)N3CCN(c4cccc(Cl)c4)CC3)sc2c2ccccc21 -34.2%, CC1CCN(S(=O)(=O)c2ccc3c(c2)N(CC(=O)NCCCN2CCCCC2C)C(=O)CS3)CC1 (stereo not given) 1.04%, N#Cc1ccccc1NC(=O)c1cc2c(=O)n3ccccc3nc2s1 -16%, COc1ccc(CCNC(=O)C2=C(C)C(=O)OC23CCCCC3)c(OC)c1OC -7.69%, CCN(CC)S(=O)(=O)c1ccc2c(c1)nc(CN(C)C(=O)c1cccc(Cl)c1)n2C -14.9%, CCCCN(CCCC)C(C(N)=O)c1ccc(OC)cc1 (stereo not given) -1.35%, CCOC(=O)c1c(NC(=O)c2ccccc2C)sc2c1CCCC2 -17.4%, O=C(CN1C(=O)COc2ccc(S(=O)(=O)N3CCCC3)cc21)NCCc1ccc(Cl)cc1 -16.9%, CCOc1ccc2nc(N3CCN(C(=O)C(C)C)CC3)sc2c1 15.9%, O=c1[nH]c2ccc(NS(=O)(=O)c3ccc(F)cc3)cc2s1 -10.4%, COc1ccc2oc(=O)cc(CN3CCN(C(=O)c4ccccc4Br)CC3)c2c1 -21.4%, COc1cc(OC)c(C(=O)CCCN2CCCC2)c(OC)c1, Cn1nnnc1SCCCNCc1ccc(-c2cccc(Cl)c2)o1 -5.77%, Brc1ccc(-c2nc(N3CCN(c4ccccc4)CC3)c3ccccc3n2)cc1 -29.8%, COc1ccc(C(=O)NCc2nnc(SCC(=O)Nc3ccc(C)cc3)n2-c2ccccc2)cc1 -8.82%, CCc1nc2nc(C)cc(Nc3cc(Cl)ccc3OC)n2n1 -3.16%, CCc1ccc(CNC(=O)c2ccc(NC(=O)N3CCSc4ncccc43)cc2)cc1 -15.8%, Cc1ccc(S(=O)(=O)N2CCC(c3nnc(-c4cccc(C)c4)o3)CC2)cc1 -59.5%, CCOc1ccc(CNC(=O)CCc2c(C)nn(-c3ccc(N4CCOCC4)nn3)c2C)cc1 -8.77%, CC(C)NC(=O)Cn1c(=O)nc(-c2ccccc2)c2ccccc21 5.09%, CCOc1ccc(CCNC(=O)c2ccc(C)c(-n3cnc4cccnc43)c2)cc1 -0.0836%, Cc1ccc(S(=O)(=O)c2nc(-c3ccco3)oc2SCC(=O)c2ccc(Cl)cc2)cc1 -13%, COc1cccc(CNC(=O)c2ccc3c(Cl)c4c(nc3c2)CCCC4)c1 -13.4%, Cc1ccc(C(C)C)c(OCc2ccc(C(=O)Nc3ccc(S(N)(=O)=O)cc3C)o2)c1 -13.7%, Cc1cccc(N(C)C(=O)CS(=O)(=O)c2cccc3nsnc23)c1 -9.7%, CCOc1ccc(Nc2cc(C)c(C#N)c3nc4ccccc4n23)cc1 -3.45%
